Laboratory results taken from the supplement of paper PMC9588766.
Structures can show the parent of a compound that is named as a salt. ± gives the standard deviation of the averaged measurements. Whole data set: some 2,000 compounds, median “cell viability relative to DMSO control (compound alone)” near 0.98, cut for the lowest 2% near 0.23. This is one part of the list.

system: PDC-DUC18828; assay: cell viability relative to DMSO control (compound alone) (fraction); PDC-DUC18828 is a patient-derived cholangiocarcinoma cell line; higher = less growth inhibition; conditions: 1 µM; 72 h
Protocol: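 Selleck Bioactive library screen in the patient-derived FGFR2-G3BP2 fusion-positive ICC cell line PDC-DUC18828 (500 cells/well). Each compound was tested at 1 uM alone, in triplicate, for 72 h. Viability was read by CellTiter-Glo and normalised to plate DMSO controls.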

`C[S+]([O-])c1ccc(-c2nc(-c3ccc(F)cc3)c(-c3ccncc3)[nH]2)cc1` (configuration not stated) and `Cc1ccc(NC(=O)c2ccc(CN3CCN(C)CC3)cc2)cc1Nc1nccc(-c2cccnc2)n1` [Imatinib (STI571)] are within error of each other in cell viability: 0.995 ± 0.041 for the first, 1.02 ± 0.03 for the second.

`CCOc1ccc2ccccc2c1C(=O)N[C@@H]1C(=O)N2[C@@H]1SC(C)(C)[C@@H]2C(=O)O` [Nafcillin Sodium] and `Cc1onc(-c2ccccc2Cl)c1C(=O)N[C@@H]1C(=O)N2[C@@H]1SC(C)(C)[C@@H]2C(=O)O` [Cloxacillin Sodium] are within error of each other in cell viability: 0.999 ± 0.06 for the first, 1 ± 0.074 for the second.

First: CCN(CC)CCNC(=O)c1cc(Cl)c(N)cc1OC [MetoclopraMide HCl]
Second: CCN(CC)CCOC(=O)c1ccc(N)cc1Cl [Chloroprocaine HCl]
The cell viability of the first is lower: 0.94 ± 0.059 for the first, 1.1 ± 0.038 for the second.

`CC1=NN(c2ccccc2)C(=O)C1` [Edaravone] and `O=C(O)CCNC(=O)c1ccccc1` [Betamipron] are within error of each other in cell viability: 0.939 ± 0.034 for the first, 0.966 ± 0.015 for the second.

First: CO[C@H]1/C=C\C=C(/C)C(=O)NC2=CC(=O)C(NCCN(C)C)=C(C[C@@H](C)C[C@H](OC)[C@H](O)[C@@H](C)/C=C(\C)[C@@H]1OC(N)=O)C2=O [17-DMAG (Alvespimycin) HCl]
Second: C[C@H]1c2cccc(O)c2C(=O)C2=C(O)[C@]3(O)C(=O)C(C(N)=O)=C(O)[C@@H](N(C)C)[C@@H]3[C@@H](O)[C@@H]21 [Doxycycline Hyclate]
The cell viability of the first is lower: 0.362 ± 0.028 for the first, 0.959 ± 0.058 for the second.

`CCC[C@@H]1C[C@@H](C(=O)N[C@@H]([C@H]2O[C@H](SC)[C@H](O)[C@@H](O)[C@H]2O)[C@H](C)Cl)N(C)C1` [Clindamycin HCl] and `CN[C@@H]1[C@H](O)[C@H](NC)[C@H]2O[C@@]3(O)C(=O)C[C@@H](C)O[C@H]3O[C@@H]2[C@H]1O` [Spectinomycin HCl] are within error of each other in cell viability: 1 ± 0.099 for the first, 0.981 ± 0.06 for the second.

Going from `CCC[C@@H]1C[C@@H](C(=O)N[C@@H]([C@H]2O[C@H](SC)[C@H](O)[C@@H](O)[C@H]2O)[C@H](C)Cl)N(C)C1` [Clindamycin] to `C=C1/C(=C\C=C2/CCC[C@]3(C)[C@@H]([C@H](C)CCCC(C)C)CC[C@@H]23)C[C@@H](O)C[C@@H]1O` [Alfacalcidol], the cell viability rises from 0.9709 ± 0.0049 to 1.01 ± 0.015.

Going from `O=C(N[C@H](CO)[C@H](O)c1ccc([N+](=O)[O-])cc1)C(Cl)Cl` [Chloramphenicol] to `CC(C)C(=O)Oc1ccc(CO)cc1[C@H](CCN(C(C)C)C(C)C)c1ccccc1` [Fesoterodine Fumarate], the cell viability rises from 0.975 ± 0.014 to 1.07 ± 0.046.

`Cc1c(-c2ccccc2)oc2c(C(=O)OCCN3CCCCC3)cccc2c1=O` [Flavoxate HCl] and `CCN(C(=O)c1c(O)c2c(Cl)cccc2n(C)c1=O)c1ccccc1` [Laquinimod] are within error of each other in cell viability: 0.9893 ± 0.0031 for the first, 0.982 ± 0.078 for the second.

Compared with `COc1ccc(O)cc1` [Mequinol], `COc1ccc(Cn2ccc3ccc(C(=O)NO)cc32)cc1` is lower in cell viability: 1.11 ± 0.048 for the first, 0.944 ± 0.044 for the second.

`CCCCCCOC(=O)NC(=N)c1ccc(NCc2nc3cc(C(=O)N(CCC(=O)OCC)c4ccccn4)ccc3n2C)cc1` [Dabigatran Etexilate] and `CCOc1nc2cccc(C(=O)OCc3oc(=O)oc3C)c2n1Cc1ccc(-c2ccccc2-c2noc(=O)[nH]2)cc1` [Azilsartan Medoxomil] are within error of each other in cell viability: 1 ± 0.049 for the first, 0.948 ± 0.03 for the second.

`NS(=O)(=O)c1cc2c(cc1Cl)NC(C(Cl)Cl)NS2(=O)=O` (configuration not stated) [Trichlormethiazide] and `Clc1ccc(C(Cn2ccnc2)OCc2ccsc2Cl)c(Cl)c1` (configuration not stated) [Tioconazole] are within error of each other in cell viability: 0.955 ± 0.058 for the first, 1.03 ± 0.033 for the second.

First: NC(=O)c1cnc(N[C@@H]2CCCC[C@@H]2N)nc1Nc1cccc(-n2nccn2)c1
Second: COc1cc(OC2CCN(C)CC2)ccc1Nc1ncc2c(n1)n(C1CCCC1)c(=O)n2C
The cell viability of the first is lower: 0.951 ± 0.027 for the first, 1.02 ± 0.038 for the second.

Compared with `C#Cc1cccc(Nc2ncnc3cc(OCCOC)c(OCCOC)cc23)c1` [Erlotinib HCl (OSI-744)], `Cc1ccc(NC(=O)c2ccc(CN3CCN(C)CC3)cc2)cc1Nc1nccc(-c2cccnc2)n1` [Imatinib Mesylate (STI571)] is higher in cell viability: 0.9322 ± 0.0069 for the first, 1.05 ± 0.016 for the second.

First: C#Cc1cccc(Nc2ncnc3cc(OCCOC)c(OCCOC)cc23)c1 [Erlotinib]
Second: COc1cc2c(cc1OC)CC(=O)N(CCCN(C)C[C@H]1Cc3cc(OC)c(OC)cc31)CC2 [Ivabradine HCl]
The cell viability of the first is lower: 0.882 ± 0.051 for the first, 1.08 ± 0.031 for the second.

`CC#CC(=O)N1CC[C@@H](n2c(=O)n(-c3ccc(Oc4ccccc4)cc3)c3c(N)ncnc32)C1` and `COc1cc(C(=O)N2CCC(N3CCN(C)CC3)CC2)ccc1Nc1ncc2c(n1)N(C)c1ccccc1C(=O)N2C` are within error of each other in cell viability: 0.983 ± 0.058 for the first, 0.977 ± 0.061 for the second.

Compared with `CCc1c2c(nc3ccc(O)cc13)-c1cc3c(c(=O)n1C2)COC(=O)[C@]3(O)CC`, `CN1CC(=O)N2[C@H](c3ccc4c(c3)OCO4)c3[nH]c4ccccc4c3C[C@@H]2C1=O` [Tadalafil] is higher in cell viability: 0.118 ± 0.0061 for the first, 1.12 ± 0.021 for the second.

`Cc1nn(-c2ccccc2)c(C)c1C=NN1CCN(Cc2ccccc2)CC1` and `CC(C)(OCc1nn(Cc2ccccc2)c2ccccc12)C(=O)O` [Bindarit] are within error of each other in cell viability: 1.04 ± 0.071 for the first, 0.944 ± 0.041 for the second.

Compared with `O=C(O)C(=O)O.[NH-][C@@H]1CCCC[C@H]1[NH-].[Pt+2]` [Oxaliplatin], `CCCN1CCCC[C@H]1C(=O)Nc1c(C)cccc1C` [Ropivacaine HCl] is higher in cell viability: 0.952 ± 0.041 for the first, 1.07 ± 0.049 for the second.

`O=C(NCC1(c2nc(-c3ccccc3)cs2)CCOCC1)c1cccc(-c2noc(C(F)(F)F)n2)c1` and `CC(NC(=O)c1ccccc1/N=C/c1c(O)ccc2ccccc12)c1ccccc1` (configuration not stated) [Sirtinol] are within error of each other in cell viability: 0.992 ± 0.073 for the first, 1.09 ± 0.047 for the second.

`Cc1c(C(=O)NN2CCCCC2)nn(-c2ccc(Cl)cc2Cl)c1-c1ccc(Cl)cc1` [Rimonabant] and `Cc1c(C(=O)NN2CCCCC2)nn(-c2ccc(Cl)cc2Cl)c1-c1ccc(I)cc1` are within error of each other in cell viability: 0.959 ± 0.054 for the first, 0.954 ± 0.02 for the second.

First: CCOC(=O)c1cnc2ccc(-c3cncc(NS(=O)(=O)c4ccccc4)c3)cn12
Second: CCc1nc(N)nc(N)c1-c1ccc(Cl)cc1 [Pyrimethamine]
The cell viability of the first is lower: 0.459 ± 0.047 for the first, 0.978 ± 0.05 for the second.

Compared with `C[C@@H](Nc1cc(F)cc(F)c1)c1cc(C(=O)N(C)C)cc2c(=O)cc(N3CCOCC3)oc12`, `Cc1cccc(-c2[nH]c(C(C)(C)C)nc2-c2ccc3c(c2)OCO3)n1` is higher in cell viability: 0.783 ± 0.046 for the first, 0.998 ± 0.055 for the second.

`CC(C)NCC(O)COc1ccc(CCOCC2CC2)cc1` (configuration not stated) [Betaxolol] was tested, and the cell viability was 1.01 ± 0.026.
